Results published in PubChem BioAssay AID504845 (National Center for Advancing Translational Sciences (NCATS), 2011).
Where “and” joins values, the source holds several entries; their conditions need not be identical. Identical values can stand only once. Screen size: about 390,000 compounds; about 150 (0.038%) were called active. This list was built around the results that the source calls inconclusive (neither active nor inactive); the mix of calls is not that of the screen. The call rests on the fitted dose curve; in most records, active means well fitted inhibition curve with a large enough effect; inconclusive means small, poorly fitted or top-dose-only effect; inactive means no such curve, though single readings can be large or run the other way. Where the call is inconclusive, the potency comes from a doubtful curve fit.

These compounds were tested against Regulator of G-protein signaling 4 (Homo sapiens) (UniProt P49798) (assay: Inhibitors of Regulator of G Protein Signaling (RGS) 4: qHTS). Details: Transcreener GDP fluorescence polarization, RGS4-accelerated GTP hydrolysis; series mostly up to 114 µM; activity change, negative = inhibition: at the top concentration.
Summary of the method: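 MLSMR compounds (23 nl, pin-transferred) preincubated 10 min at room temperature with a 500nM (2x) first reagent, then RGS4 at 900nM (2x) plus Transcreener GDP mix added; fluorescence polarization (620/688 nm) read before and after 90 min at 30 °C.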
Further: nearly all actives have a fitted effect of over 75% in size.
On the % scale 0 is the no-effect control and ±100 the full control effect; potency means the concentration at half of the fitted maximal effect; tags describe the fitted curve by direction and shape.

Chain of UniProt P49798 (P49798 whole entry, looked up): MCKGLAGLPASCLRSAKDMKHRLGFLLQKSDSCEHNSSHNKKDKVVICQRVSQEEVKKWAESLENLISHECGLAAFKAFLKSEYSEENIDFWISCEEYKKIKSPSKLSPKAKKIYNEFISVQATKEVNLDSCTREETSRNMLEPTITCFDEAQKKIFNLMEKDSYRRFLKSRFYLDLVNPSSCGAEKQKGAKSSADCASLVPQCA

Compound	Potency	activity change, negative = inhibition
CCN1CCN(Cc2ccc(NC(=O)c3cc(NC(=O)c4cc5cccc(OC)c5o4)cc(OC)c3)cc2C(F)(F)F)CC1	inconclusive: 79.4 µM [inhibitor, partial curve, poor fit]	
COc1ccc(CCNC(=O)c2ccc3nc(-c4ccco4)c(-c4ccco4)nc3c2)cc1OC	inconclusive: 70.8 µM [inhibitor, single point]	
O=C(CCC(=O)N1CCOc2ccccc21)NCc1cccs1		inactive: -11.5%
CNC(=O)c1nc(C)n(-c2ccc(Cl)cc2Cl)n1	inconclusive: 17.8 µM [inhibitor, full curve, poor fit]	
CCOC(=O)C(C)Sc1nc(-c2ccco2)cc(C(F)(F)F)c1C#N (configuration not stated)	inconclusive: 56.2 µM [inhibitor, partial curve, poor fit]	
CC(C)S(=O)(=O)C1=NSC2=NC(=O)/C(=C\c3ccc(-c4ccccc4)o3)C(=N)N21		inactive: -6.22%
NS(=O)(=O)c1cccc(NC(=O)CSc2nc3ccccc3[nH]2)c1		inactive: 7.14%
COc1ccc(OC)c(Nc2nc(-c3ccc(O)c(O)c3)cs2)c1	inconclusive: 89.1 µM [inhibitor, single point]	
O=C(O)c1ccc(COc2ccc3ccccc3c2/C=C2/NC(=O)N(Cc3ccc(F)cc3)C2=O)cc1	inconclusive: 79.4 µM [inhibitor, partial curve, poor fit]	
CCCc1cc(C(=O)OC)c(NC(=O)CCC(=O)O)s1	inconclusive: 89.1 µM [inhibitor, single point]	
CC1CCCCC1NC(=O)CSc1nncn1N (configuration not stated)	inconclusive: 50.1 µM [inhibitor, partial curve, poor fit]	
O=C1c2ccccc2-c2onc3ccc(N4CCCC4)c1c23	inconclusive: 28.2 µM [inhibitor, full curve, poor fit]	
CC(NC(=O)C1CCCC1)C1CC2CCC1C2 (configuration not stated)		inactive: 14.3%
COc1ccc(-n2cc3c(-c4cccc(Br)c4)nnc(C)c3n2)cc1	inconclusive: 100 µM [inhibitor, single point]	
O=C(NC(CSC(=O)c1ccccc1)C(=O)O)OCc1ccccc1 (configuration not stated)	inconclusive: 70.8 µM [inhibitor, single point]	
O=C(OCC(=O)C12CC3CC(CC(C3)C1)C2)c1cccnc1	inconclusive: 79.4 µM [inhibitor, partial curve, poor fit]	
c1cncc(-c2nn3c(Cn4cnc5ccccc54)nnc3s2)c1	inconclusive: 10 µM [inhibitor, full curve, poor fit]	
O=C(CN1C(=O)CC(c2ccco2)Sc2ccccc21)Nc1ccccc1F (configuration not stated)	inconclusive: 28.2 µM [inhibitor, full curve, poor fit]	
Cc1ccc(C)c(-n2c3nc(=O)[nH]c(=O)c-3cc3cc([N+](=O)[O-])ccc32)c1	inconclusive: 50.1 µM [inhibitor, partial curve, poor fit]	
CC1=NNC(=O)C1C(c1ccc(Cl)cc1)C(C#N)C#N (configuration not stated)	inconclusive: 50.1 µM [inhibitor, partial curve, poor fit]	
CC1(C)CC(=O)C(C=N)=C(O)C1	inconclusive: 89.1 µM [inhibitor, single point]	

Compound	Potency	activity change, negative = inhibition
CCC(=O)OC1(C)C(=O)C2=COC(c3ccc(OC)cc3)=CC2=C(Br)C1=O (configuration not stated)	inconclusive: 56.2 µM [inhibitor, partial curve, poor fit]	
Nc1ccc(Cl)c(S(=O)(=O)Nc2ccc(Cl)cc2)c1		inactive: -1.95%
COC(=O)COc1cccc2c(=O)n(CC(=O)N3CCCCC3)ccc12		inactive: 21.8%
CC1CN(c2nnc(-c3ccccc3)c3ccccc23)CC(C)O1 (configuration not stated)	inconclusive: 50.1 µM [inhibitor, partial curve, poor fit]	
O=C1NC(=S)NC(=O)C1Nc1ccc(Cl)cc1	inconclusive: 44.7 µM [inhibitor, partial curve, poor fit]	
Cc1ccc(C(=O)NC(=S)NCc2cccnc2)cc1	inconclusive: 50.1 µM [inhibitor, partial curve, poor fit]	
COc1cccc(CNC(=O)c2nnn(CC(=O)Nc3ccc(Br)cc3)c2N)c1	inconclusive: 44.7 µM [inhibitor, partial curve, poor fit]	
Cc1[nH]nc2c1C1(CCN(C(=O)OCc3ccccc3)CC1)C(C#N)=C(N)O2	inconclusive: 89.1 µM [inhibitor, single point]	
O=C(CS)Nc1ccc2ccccc2c1	inconclusive: 31.6 µM [inhibitor, full curve, poor fit] and inconclusive: 50.1 µM [inhibitor, partial curve, poor fit]	
COc1ccc(C2=NOC(CN3C(=O)c4ccccc4S3(=O)=O)C2)cc1 (configuration not stated)		inactive: -1.2%
N#C/C(=C(/O)CCl)c1nc2c(s1)CCc1ccccc1-2	inconclusive: 17.8 µM [inhibitor, full curve, poor fit]	
COc1cc(/C=C/[N+](=O)[O-])ccc1OCc1cccc(C(=O)O)c1	inconclusive: 28.2 µM [inhibitor, full curve, poor fit]	
CCOC(=O)c1ccc(NC(=O)CSC2=NN3CCCC(=O)N=C3S2)cc1	inconclusive: 50.1 µM [inhibitor, partial curve, poor fit]	
CCOC(=O)CS(=O)(=O)c1nc(-c2ccc(F)cc2)cc(C(F)(F)F)n1	inconclusive: 20 µM [inhibitor, full curve, poor fit]	
Cc1ccc(C2C=C(c3ccc(Cl)cc3)Nc3nc(NC(=O)c4ccco4)nn32)cc1 (configuration not stated)		inactive: -22.9%
CCOc1ccc(C(c2c(O)cc(C)n(Cc3ccco3)c2=O)N2CCN(c3ccccc3)CC2)cc1 (configuration not stated)	inconclusive: 79.4 µM [inhibitor, partial curve, poor fit]	
CNc1cc(CS(=O)c2ccccc2)nc(-c2ccccc2)n1 (configuration not stated)		inactive: -11.7%
COc1ccc(/C=C2\SC(=S)N(CCCC(=O)NNC(=O)c3ccccc3O)C2=O)cc1	inconclusive: 50.1 µM [inhibitor, partial curve, poor fit]	
CCN1CCCC1CNCC(O)COc1ccc(C(C)(C)C)cc1C (configuration not stated)	inconclusive: 35.5 µM [inhibitor, partial curve, poor fit]	
O=c1[nH]c(C2CCN(S(=O)(=O)c3cccc(C(F)(F)F)c3)CC2)nc2c1nnn2Cc1cccc(F)c1		inactive: -25.5%
Cc1cccc(NS(=O)(=O)c2ccc3[nH]c(=O)oc3c2)c1C	inconclusive: 79.4 µM [inhibitor, partial curve, poor fit]	

Compound	Potency	activity change, negative = inhibition
CCN(CC)CCSc1nc2ccccc2c(=S)n1-c1ccccc1	inconclusive: 79.4 µM [inhibitor, partial curve, poor fit]	
COc1ccccc1C(=O)NNC(=S)NC(=O)c1sc2ccccc2c1Cl	inconclusive: 100 µM [inhibitor, partial curve, poor fit]	
CCNC(=O)NC(=O)C(C)Sc1nc2ccccc2c(=O)n1-c1cccnc1 (configuration not stated)		inactive: -10.6%
O=C(Nc1ccc(-c2nc3ccccc3[nH]2)cc1)c1ccco1	inconclusive: 89.1 µM [inhibitor, single point]	
O=C(Cn1c(=O)cnc2ccccc21)Nc1ccccc1N1CCOCC1		inactive: 2.61%
COc1ccc(C(C(=O)NC(C)C)N(C(=O)CCC(=O)Nc2nccs2)c2ccccc2F)cc1 (configuration not stated)	inconclusive: 39.8 µM [inhibitor, partial curve, poor fit]	
CCN(CC)CCOC(=O)c1ccc(N/C=C(/C#N)c2nc(-c3ccc(OC)c(OC)c3)cs2)cc1	inconclusive: 20 µM [inhibitor, full curve, poor fit]	
Cc1cccc(C)c1-n1c(SCC(=O)N2CC(=O)Nc3ccccc32)nc2ccccc2c1=O		inactive: 7.02%
COc1ccc([N+](=O)[O-])c(S(=O)(=O)c2ccccc2)n1	inconclusive: 17.8 µM [inhibitor, full curve, poor fit]	
C[C@H](NC(N)=O)C(=O)Nc1ccc(N2CCOCC2)c(S(=O)(=O)Nc2ccc(Cl)cc2)c1	inconclusive: 31.6 µM [inhibitor, full curve, poor fit]	
C=CCn1c(Sc2ncc([N+](=O)[O-])s2)n[nH]c1=O	inconclusive: 17.8 µM [inhibitor, full curve, poor fit]	
CC1CCCCC1NC(=O)CO/N=C/c1ccccc1OC(F)F (configuration not stated)		inactive: -9.64%
COc1cc(SC)ccc1C(=O)Nc1ccc(OCC(=O)N2CCOCC2)cc1		inactive: -2.05%
Cc1ccc(C)c(OCCCC(=O)Nc2ccccc2C(N)=O)c1	inconclusive: 112 µM [inhibitor, partial curve, poor fit]	
COc1cc(NS(=O)(=O)c2ccc(NC(=S)NC(=O)c3sc4ccccc4c3Cl)cc2)ncn1	inconclusive: 79.4 µM [inhibitor, partial curve, poor fit]	
CCN(CC)C(=O)Cc1c(O)c2ccccc2[nH]c1=O		inactive: 19.3% [at 11.4 µM]
COc1ccc(-c2cc(-c3n[nH]c(=S)n3-c3cc(OC)ccc3OC)[nH]n2)cc1	inconclusive: 79.4 µM [inhibitor, partial curve, poor fit]	
O=C(N/N=C/c1ccncc1)c1ccc(NC(=O)c2ccc(Cl)cc2)cc1	inconclusive: 50.1 µM [inhibitor, partial curve, poor fit]	
CC(C)CCc1noc(CN(CC2CCC2)CC2CCCO2)n1 (configuration not stated)		inactive: 29.7% [at 11.4 µM]
CCC(C)N(C)C(=O)c1cc2ccccc2c(-c2ccccc2Cl)n1 (configuration not stated)	inconclusive: 0.946 µM [inhibitor, full curve, poor fit]	
